Among all 2,700 compounds or so, about 160 (5.9%) showed an effect of 50% or more. The list shows a part of the results.

This experiment deals with Nonstructural protein 3 (Zika virus) (UniProt A0A024AXB9).
[1] abbreviates: PRVABC59, Concentration 50.0 uM, Number of replicates 1.0.
[2] abbreviates: PRVABC59, Concentration 10.0 uM, Number of replicates 1.0.
[3] abbreviates: PRVABC59, Concentration 15.0 uM, Number of replicates 1.0.

Sequence of UniProt A0A024AXB9 (A0A024AXB9 as listed by the source): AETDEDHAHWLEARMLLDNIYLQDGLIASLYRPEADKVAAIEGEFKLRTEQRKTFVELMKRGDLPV

In the case of `O=Cc1ccc(N2CCC(C(=O)Nc3ccc(-n4cccn4)cc3)CC2)cc1`, under setting [1], the inhibition (as a rule, the relative decrease from the control value, in per cent) was 21.4%.
For the compound `O=Cc1ccc(N2CCC(C(=O)NCc3ccc(C(F)(F)F)nc3)CC2)cc1`, the inhibition under setting [2] stood at 24.8%.
In the case of `COc1cccc(CCNC(=O)c2cc(Cl)ccc2NS(=O)(=O)c2ccc(Oc3ccccc3Cl)cc2)c1`, the inhibition under setting [3] was found to be 27.6%.
On to `O=C(c1cc(Cl)ccc1NS(=O)(=O)c1ccc(Oc2ccccc2Cl)cc1)N(CC1CC1)C[C@H]1CCCO1`, for which, under setting [3], the inhibition was 18.4%.
Regarding `Cc1cc(CO)c2cccc(NC(=O)C3CCC(CN)CC3)c2n1` (stereo not drawn), the inhibition was 93.7% (PRVABC59, Concentration 49.95 uM, Number of replicates 2.0, Standard deviation 1.4301713707436838 %) and 92.3% (PRVABC59, Concentration 99.9 uM, Number of replicates 2.0, Standard deviation 0.5018131910126516 %).
With `CSCC[C@H](NC(=O)OC(C)(C)C)C(=O)N1CCC[C@H]1C(=O)Nc1cccc(CN)c1`, the inhibition (PRVABC59, Concentration 49.5 uM, Number of replicates 2.0, Standard deviation 1.581266347515541 %) is 0.2%; the inhibition (PRVABC59, Concentration 99.01 uM, Number of replicates 2.0, Standard deviation 1.546934947174704 %) worked out at 0.972%; the inhibition (PRVABC59, Concentration 198.0 uM, Number of replicates 2.0, Standard deviation 2.1346085705455513 %) turned out to be 2.7%.
As for `CC(C)(C)OC(=O)N1CCOC[C@H]1CNCc1nnc2ccccn12`, the inhibition (PRVABC59, Concentration 49.5 uM, Number of replicates 2.0, Standard deviation 1.9960255811771535 %) was -1.72%; the inhibition (PRVABC59, Concentration 99.01 uM, Number of replicates 2.0, Standard deviation 1.2346722656218103 %) was -1.22%; the inhibition (PRVABC59, Concentration 198.0 uM, Number of replicates 2.0, Standard deviation 1.381215951736946 %) is -0.678%.
With `NCc1cccc(NC(=O)[C@]2(NC(=O)OCc3ccccc3)CCOC2)c1`, the inhibition (PRVABC59, Concentration 49.5 uM, Number of replicates 2.0, Standard deviation 1.5769274927803825 %) is -1.07%; the inhibition (PRVABC59, Concentration 99.01 uM, Number of replicates 2.0, Standard deviation 1.1798240639170976 %) amounted to 2.06%; the inhibition (PRVABC59, Concentration 198.0 uM, Number of replicates 2.0, Standard deviation 1.1535693589868123 %) amounted to 6.95%.
Take `C[C@@H]1CN(C2CCN(C(=O)C3CCN(c4ccc(C=O)cc4)CC3)CC2)C[C@H](C)O1`: under setting [1], the inhibition was 20.4%.
On to `O=C(Nc1cc(Cl)c(O)c(Cl)c1)c1cc(Cl)ccc1NS(=O)(=O)c1ccc(Oc2ccccc2Cl)cc1`, for which the inhibition under setting [3] turned out to be 84.9%.
As to `O=C(Nc1ccc([N+](=O)[O-])cc1)c1cc(Cl)ccc1NS(=O)(=O)c1ccc(Oc2ccccc2Cl)cc1`, the inhibition under setting [3] worked out at 29.8%.
`O=Cc1ccc(N2CCC(C(=O)N3CCN(C(=O)c4ccco4)CC3)CC2)cc1`: under setting [1], the inhibition came to 24.6%.
Turning to `O=Cc1ccc(N2CCC(C(=O)NCCc3ccc(Cl)cc3Cl)CC2)cc1`, the inhibition under setting [1] was 18.8%.
As to `Cn1cc(CN)c(NS(=O)(=O)c2ccc(Oc3ccccc3)cc2)n1`, the inhibition (PRVABC59, Concentration 49.5 uM, Number of replicates 2.0, Standard deviation 0.28945899218881677 %) was 2.85%; the inhibition (PRVABC59, Concentration 99.01 uM, Number of replicates 2.0, Standard deviation 1.7759284478361246 %) amounted to 1.35%; the inhibition (PRVABC59, Concentration 198.0 uM, Number of replicates 2.0, Standard deviation 3.118756723311272 %) is 1.95%.
As to `CC(C)c1ccc2c(c1)CC[C@H]1[C@](C)(CNC(=O)C3CCN(c4ccc(C=O)cc4)CC3)CCC[C@]21C`, the inhibition under setting [1] came to 2.88%.
With `CNC(=O)C1(C)CCN(C(=O)C2CCN(c3ccc(C=O)cc3)CC2)CC1`, the inhibition under setting [1] came out at 22.8%.
Take `O=Cc1ccc(N2CCC(C(=O)NCc3cc(F)c(F)cc3F)CC2)cc1`: the inhibition under setting [2] was 17%.
Turning to `O=Cc1ccc(N2CCC(C(=O)NCc3ccc(C(=O)N4CCCC4)cc3)CC2)cc1`, the inhibition under setting [2] was 24.7%.
Turning to `O=C(c1cc(Cl)ccc1NS(=O)(=O)c1ccc(Oc2ccccc2Cl)cc1)N1CCN(c2ccccc2[N+](=O)[O-])CC1`, the inhibition under setting [3] came to 26.4%.
`O=Cc1ccc(N2CCC(C(=O)N(Cc3cnn(-c4ccccc4)c3)C3CC3)CC2)cc1`: under setting [1], the inhibition was determined as 26.1%.
On the same count and under the same terms, with `CC(C)N(C[C@H](O)COc1ccc(CC(N)=O)cc1)C(=O)C1CCN(c2ccc(C=O)cc2)CC1` the figure was 23.4%.
`O=Cc1ccc(N2CCC(C(=O)N3CCN(c4ccc(F)cc4F)CC3)CC2)cc1`: under setting [1], the inhibition came out at 20.8%.
As to `NCc1ncc(C(=O)Nc2ccccc2N2CCC(CO)CC2)c(C(F)(F)F)n1`, the inhibition was 4.17% (PRVABC59, Concentration 49.5 uM, Number of replicates 2.0, Standard deviation 2.673647712624359 %); 6.59% (PRVABC59, Concentration 99.01 uM, Number of replicates 2.0, Standard deviation 2.2429929004139844 %); 8.61% (PRVABC59, Concentration 198.0 uM, Number of replicates 2.0, Standard deviation 2.184034516969065 %).
As to `Cc1cnccc1NC(=O)c1cc(C2CC2)n(C)c1C`, the inhibition (PRVABC59, Concentration 49.5 uM, Number of replicates 2.0, Standard deviation 1.2081823180565616 %) is -2.23%; the inhibition (PRVABC59, Concentration 99.01 uM, Number of replicates 2.0, Standard deviation 2.393209010027268 %) is 1.49%; the inhibition (PRVABC59, Concentration 198.0 uM, Number of replicates 2.0, Standard deviation 1.424755669297428 %) was 12.1%.
`CN1CCN(c2ccc(CCNS(=O)(=O)c3ccc(F)cc3)cc2)CC1`: the inhibition is, setting by setting: (PRVABC59, Concentration 49.5 uM, Number of replicates 2.0, Standard deviation 6.510129757356286 %) -3%; (PRVABC59, Concentration 99.01 uM, Number of replicates 2.0, Standard deviation 7.557780967168432 %) -1.21%; (PRVABC59, Concentration 198.0 uM, Number of replicates 2.0, Standard deviation 5.825870108397918 %) 3.11%.
As for `Cc1sc(NC(=O)c2cc(Cl)ccc2NS(=O)(=O)c2ccc(Oc3ccccc3Cl)cc2)nc1-c1ccc(Cl)cc1`, the inhibition under setting [3] turned out to be 33.2%.
Turning to `Cc1cc(CO)c2cccc(NCc3ccc(S(N)(=O)=O)cc3)c2n1`, the inhibition is -5.11% (PRVABC59, Concentration 49.95 uM, Number of replicates 2.0, Standard deviation 2.3986730749821903 %) and -8.96% (PRVABC59, Concentration 99.9 uM, Number of replicates 2.0, Standard deviation 1.886822696290366 %).

The values are drawn from ChEMBL document CHEMBL5606458, “ASAP - ZIKV NS2B-NS3 protease fluorescence single point” (2024).
